Data: PubChem BioAssay AID504845 (National Center for Advancing Translational Sciences (NCATS), 2011)
Hit rate of the full screen: of about 390,000 compounds, about 150 (0.038%) were called active. This list was built around the results that the source calls inconclusive (neither active nor inactive); the mix of calls is not that of the screen. Calls follow the shape of the dose curve; as a rule, active = well fitted inhibition curve with a large enough effect; inconclusive = small, poorly fitted or top-dose-only effect; inactive = no such curve, though single readings can be large or run the other way. Potencies of inconclusive entries are doubtful fits and often do not repeat.

Molecular target: Regulator of G-protein signaling 4 (Homo sapiens) (UniProt P49798)
Chain of UniProt P49798 (P49798 whole entry, looked up): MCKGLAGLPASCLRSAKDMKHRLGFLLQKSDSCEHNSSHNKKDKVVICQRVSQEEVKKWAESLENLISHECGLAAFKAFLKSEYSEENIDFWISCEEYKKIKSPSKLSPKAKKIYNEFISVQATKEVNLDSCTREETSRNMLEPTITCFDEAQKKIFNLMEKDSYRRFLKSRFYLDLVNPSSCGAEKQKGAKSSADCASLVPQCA
Assay: Inhibitors of Regulator of G Protein Signaling (RGS) 4: qHTS; also: nearly all actives have a fitted effect of over 75% in size
Conditions: Transcreener GDP fluorescence polarization, RGS4-accelerated GTP hydrolysis; series mostly up to 114 µM
How it was run: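 MLSMR compounds (23 nl, pin-transferred) preincubated 10 min at room temperature with a 500nM (2x) first reagent, then RGS4 at 900nM (2x) plus Transcreener GDP mix added; fluorescence polarization (620/688 nm) read before and after 90 min at 30 °C.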
% is scaled to controls: 0 for no effect and ±100 for the full control effect; potency is read from the fitted curve at half-maximal effect; tags tell the direction and shape of the fitted curve.

SMILES | Potency | activity change, negative = inhibition
O=C(NCc1ccccc1)c1ccc2c(c1)sc1nc(-c3ccc(F)cc3)cn12 | inactive | –
Cc1cccc(NC(c2nnc(-c3ccccc3)o2)c2ccc(F)cc2Cl)c1C (stereo not given) | inactive | –
Cn1c(C(=O)Nc2cccc(Cl)c2)cc2c(=O)n(C)c3ccccc3c21 | inactive | –
Cc1cc(C)c(C)c(S(=O)(=O)N2CCN(c3ccc(O)cc3)CC2)c1C | inconclusive: 10 µM [inhibitor, full curve, poor fit] | –
COc1cc(/C=N\NC(=O)CC#N)ccc1OC/C=C/c1ccccc1 | inactive | –
Cc1cc(C)cc(C(=O)NCC(=O)OCC(=O)N(C)c2ccccc2)c1 | inconclusive: 89.1 µM [inhibitor, single point] | –
N#C/C(=N\Nc1ccc(S(=O)(=O)N2CCc3ccccc32)cc1)C(N)=S | inconclusive: 44.7 µM [inhibitor, partial curve, poor fit] | –
O=[N+]([O-])c1ccc(C=NN2CCCCCC2)cc1 | inactive | –
CC1CN(c2ccc(Cl)cc2[N+](=O)[O-])CCN1S(C)(=O)=O (stereo not given) | inconclusive: 50.1 µM [inhibitor, partial curve, poor fit] | –
O=C(COC(=O)c1ccc2[nH]c3c(c2c1)CCCC3)Nc1ccccc1 | inactive | –
Cc1nc(NC(=O)c2ccco2)sc1-c1csc(Nc2ccc(Cl)cc2)n1 | inconclusive: 50.1 µM [inhibitor, partial curve, poor fit] | –
O=C(Nc1cccc(NC(=O)c2ccc(Br)o2)n1)c1ccc(Br)o1 | inconclusive: 31.6 µM [inhibitor, full curve, poor fit] | –
COc1ccc(-c2ccc(=O)n(CC(=O)Nc3ccc4c(c3)OCCO4)n2)cc1 | inconclusive: 50.1 µM [inhibitor, partial curve, poor fit] | –
CCOC(=O)c1sc(NC(=O)CSc2nnc(Cc3ccccc3)o2)c(C#N)c1C | inconclusive: 79.4 µM [inhibitor, partial curve, poor fit] | –
O=C(OCC(=O)N1CCN(c2ccccc2)CC1)c1ccccc1[N+](=O)[O-] | inconclusive: 89.1 µM [inhibitor, single point] | –
CC(C(=O)NC(=O)NC1CCCCC1)N1CCN(c2ccccn2)CC1 (stereo not given) | inactive | –
CCCc1c2c(cc3c(=O)cc(C(=O)OCC)oc13)CCCC2 | inconclusive: 35.5 µM [inhibitor, partial curve, poor fit] | –
CCCC(=O)N(c1ccc2oc(=O)sc2c1)S(=O)(=O)c1ccccc1 | inconclusive: 44.7 µM [inhibitor, partial curve, poor fit] | –
Cc1cc(Br)ccc1NC(=O)C(NS(=O)(=O)c1cccs1)c1ccccc1 (stereo not given) | inconclusive: 79.4 µM [inhibitor, partial curve, poor fit] | –
CC(C)n1c(NCc2cc(Cl)ccc2O)nc2ccccc21 | inactive | –
NS(=O)(=O)c1ccc(CCNC(=O)CCn2c(=O)c3cccn3c3cccnc32)cc1 | inactive | –
CC(CCc1ccco1)NC(=O)c1cc2c(-c3ccccc3F)nn(C)c2s1 (stereo not given) | inconclusive: 25.1 µM [inhibitor, full curve, poor fit] | –

SMILES | Potency | activity change, negative = inhibition
CC(=NNC(=S)N(Cc1ccccn1)Cc1ccccn1)c1cnccn1 | inconclusive: 100 µM [inhibitor, partial curve, poor fit] | –
O=C(c1cnc(N2CCCCC2)c2ccccc12)N1CCN(c2ccc(F)cc2)CC1 | inactive | –
Fc1ccc(Nc2nc(-c3ccc(F)cc3)c3c(n2)-c2ccccc2OC3)cc1 | inconclusive: 79.4 µM [inhibitor, partial curve, poor fit] | –
CSc1nc(C)cc(Nc2cccc(C(=O)O)c2)n1 | inactive | –
CSC(=Nc1ccccc1)N=C(SCc1ccccc1)N(C)C | inconclusive: 100 µM [inhibitor, single point] | –
O=[N+]([O-])c1cccc(/C=N/N2CCN(Cc3ccccc3)CC2)c1 | inactive | –
O=C(O)c1cn(-c2ccccc2)nc1-c1ccc(Cl)cc1 | inactive | –
CCN(C(=O)C(C)N1C(=O)/C(=C/c2ccco2)SC1=S)C1CCS(=O)(=O)C1 (stereo not given) | inconclusive: 79.4 µM [inhibitor, partial curve, poor fit] | –
Cc1cc(N)n2ncc(-c3ccc(F)cc3)c2n1 | inactive | –
S=P(c1ccc(N2CCOCC2)cc1N1CCOCC1)(N1CCOCC1)N1CCOCC1 | inconclusive: 50.1 µM [inhibitor, partial curve, poor fit] | –
CC(=O)c1ccc(NC(=O)CSc2nnc(-c3ccncc3)n2C2CC2)cc1 | inconclusive: 79.4 µM [inhibitor, partial curve, poor fit] | –
Cn1c(=O)c(C(=O)CN2CCc3ccccc32)c(N)n(Cc2ccccc2)c1=O | inconclusive: 28.2 µM [inhibitor, full curve, poor fit] | –
COc1cccc(N(C(=O)Cc2cccs2)C(C(=O)NC2CCCC2)c2ccncc2)c1 (stereo not given) | inactive | –
CCNC(=S)N1CCC(Cc2ccccc2)CC1 | inactive | –
Cn1cccc1Cc1nnc(SCC(=O)Nc2ccc(F)cc2)n1-c1ccc(F)cc1 | inconclusive: 50.1 µM [inhibitor, partial curve, poor fit] | –
O=C1ON=C(c2ccc([N+](=O)[O-])cc2)/C1=C/c1ccccc1O | inconclusive: 50.1 µM [inhibitor, partial curve, poor fit] | –
CCOC(=O)N1CCC(NC(=S)Nc2ccc3nc(N4CCN(CC)CC4)cc(C)c3c2)CC1 | – | inactive: 25% [at 11.4 µM]
CCOc1ccc(CC(=O)Nc2sc(Cc3ccccc3)cc2C(N)=O)cc1OCC | inconclusive: 39.8 µM [inhibitor, partial curve, poor fit] | –
Cc1ccc(-c2cc(C(=O)Nc3ccc(S(=O)(=O)Nc4nccs4)cc3)c3ccccc3n2)c(C)c1 | inconclusive: 17.8 µM [inhibitor, full curve, poor fit] | –
CCOc1cc(CN2CCN(c3cccc(C(F)(F)F)c3)CC2)ccc1OC | inactive | –
C[n+]1c(-c2ccccc2)cc2c(=Cc3ccccc3)c3ccccc3n21 | inconclusive: 79.4 µM [inhibitor, partial curve, poor fit] | –
COc1ccc(Br)cc1C1CC(=O)N2CN(Cc3ccccc3)CSC2=C1C#N (stereo not given) | inconclusive: 79.4 µM [inhibitor, partial curve, poor fit] | –

SMILES | Potency | activity change, negative = inhibition
COc1cc(OC)cc(C(=O)N[C@@H](CCSC)c2nc3ccccc3[nH]2)c1 | inactive | –
c1ccc2c(c1)CCN2CCN1CCc2ccccc21 | inconclusive: 79.4 µM [inhibitor, partial curve, poor fit] | –
COC(=O)c1c(NC(=O)COc2ccc(Cl)cc2C)sc2c1CCCCC2 | inconclusive: 56.2 µM [inhibitor, partial curve, poor fit] | –
CN(C)S(=O)(=O)c1cccc(NC(=S)Nc2cccc3cnccc23)c1 | inconclusive: 44.7 µM [inhibitor, partial curve, poor fit] | –
O=C(CCS(=O)(=O)c1ccccc1)Nc1ccc(-c2nc3ccccc3s2)cc1 | inconclusive: 89.1 µM [inhibitor, partial curve, poor fit] | –
CC(/C=C/c1ccccc1)=N/NC(=O)c1cnccn1 | inactive | –
COC(=O)CSc1nc(C)cc(C)n1 | inconclusive: 28.2 µM [inhibitor, full curve, poor fit] | –
NNC(=O)c1nc[nH]c1C(=O)Nc1ccccc1[N+](=O)[O-] | inconclusive: 17.8 µM [inhibitor, full curve, poor fit] | –
Oc1ccc2ccccc2c1C=NC1CCCCC1 | inconclusive: 79.4 µM [inhibitor, partial curve, poor fit] | –
Cc1[nH]n(C(N)=S)c(=O)c1C(c1ccccc1)C(C#N)C#N (stereo not given) | inconclusive: 50.1 µM [inhibitor, partial curve, poor fit] | –
NC(=O)CC(NC(=O)Cc1ccc(Br)cc1)c1ccc(NC2CCC2)c([N+](=O)[O-])c1 (stereo not given) | inactive | –
S=c1[nH]nc(-c2ccccn2)n1/N=C/c1ccc(Cl)cc1 | inconclusive: 100 µM [inhibitor, single point] | –
CC(C)(C)NC(=O)C(c1ccncc1)N(C(=O)Cn1nnc(-c2ccc(F)cc2)n1)c1ccccc1 (stereo not given) | inconclusive: 50.1 µM [inhibitor, partial curve, poor fit] | –
CC(C)CNc1cc(NC2CCCCC2)c2c3c(onc13)-c1ccccc1C2=O | inconclusive: 28.2 µM [inhibitor, full curve, poor fit] | –
O=[N+]([O-])c1ccc(-c2c[nH]c(=S)[nH]2)cc1 | inconclusive: 44.7 µM [inhibitor, partial curve, poor fit] | –
COc1ccc(/C=N/NS(=O)(=O)c2ccccc2)cc1OC | inconclusive: 56.2 µM [inhibitor, partial curve, poor fit] | –
CCC(C(=O)NCCc1ccc(SC)cc1)n1nc(C)c2c(C)n(-c3ccc(C)cc3)nc2c1=O (stereo not given) | inactive | –
CN(C)S(=O)(=O)N1CCC(Oc2cccc(C(=O)NCCCC3CCCC3)c2)CC1 | inconclusive: 79.4 µM [inhibitor, partial curve, poor fit] | –
Cc1ccccc1-c1cc(C(=O)Nc2sc(C(=O)OC(C)C)c(C)c2C#N)c2ccccc2n1 | inconclusive: 79.4 µM [inhibitor, partial curve, poor fit] | –
CS(=O)(=O)c1ccc(Cl)c(NC(=O)Cc2ccccc2F)c1 | inconclusive: 25.1 µM [inhibitor, full curve, poor fit] | –
COc1cc(/C=C2/C(=O)ON=C2c2ccccc2)ccc1O | inconclusive: 35.5 µM [inhibitor, full curve, poor fit] | –
